{"source": "the supplement of paper PMC3334620", "note": "Whole data set: some 33,000 sequences, median “E-score (-0.5 to 0.5)” near -0.054, cut for the highest 2% near 0.35. This is one part of the list."}
{"target": "T1, Stb5 (UniProt P38699)", "T1 sequence": "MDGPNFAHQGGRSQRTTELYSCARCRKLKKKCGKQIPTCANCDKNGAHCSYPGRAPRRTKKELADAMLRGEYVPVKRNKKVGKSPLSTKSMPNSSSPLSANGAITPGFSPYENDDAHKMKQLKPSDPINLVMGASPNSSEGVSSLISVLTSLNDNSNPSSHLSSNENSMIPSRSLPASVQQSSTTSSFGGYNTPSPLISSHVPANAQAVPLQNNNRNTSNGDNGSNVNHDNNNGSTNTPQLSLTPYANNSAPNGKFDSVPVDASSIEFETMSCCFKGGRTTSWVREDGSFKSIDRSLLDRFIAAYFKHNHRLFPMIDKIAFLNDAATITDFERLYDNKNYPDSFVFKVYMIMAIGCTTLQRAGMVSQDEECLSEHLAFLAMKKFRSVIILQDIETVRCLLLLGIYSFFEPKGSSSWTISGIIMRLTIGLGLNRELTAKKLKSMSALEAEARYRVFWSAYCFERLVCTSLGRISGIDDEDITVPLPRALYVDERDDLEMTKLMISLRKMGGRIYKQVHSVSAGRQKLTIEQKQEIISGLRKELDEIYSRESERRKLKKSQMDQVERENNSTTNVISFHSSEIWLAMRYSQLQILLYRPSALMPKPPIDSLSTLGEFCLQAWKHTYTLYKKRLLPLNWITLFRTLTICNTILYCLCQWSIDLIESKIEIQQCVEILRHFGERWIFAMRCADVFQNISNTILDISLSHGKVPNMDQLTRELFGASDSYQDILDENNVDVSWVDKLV", "assay": "PBM E-score (8-mer binding enrichment) (E-score (-0.5 to 0.5)); higher = stronger / more preferred TF binding; most listed sequences are background and not binding sites", "conditions": "protein concentration: 200 nM; construct: GST-full length", "procedure,_shortened": "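Each ungapped eight-base word and its reverse complement, pooled, received an E-score from the Universal PBM Analysis Suite. Underlying scans, normalised with masliner, recorded fluorescent anti-GST bound to GST-tagged yeast transcription factors. These were applied at about 100-200 nM to universal all-10-mer Agilent arrays double-stranded by primer extension.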"}
{"sequence": "GAGATCAC", "PBM E-score": -0.0724}
{"sequence": "TGCGCAAA", "PBM E-score": -0.158}
{"sequence": "AACACACA", "PBM E-score": -0.174}
{"sequence": "TCACAGCA", "PBM E-score": -0.201}
{"sequence": "AGCGACCG", "PBM E-score": 0.121}
{"sequence": "AACGGCGG", "PBM E-score": 0.304}
{"sequence": "CAACAGGG", "PBM E-score": -0.045}
{"sequence": "CTTGTTCA", "PBM E-score": -0.202}
{"sequence": "CCGTACGG", "PBM E-score": 0.199}
{"sequence": "AAAGTATA", "PBM E-score": -0.0997}
{"sequence": "ACAGTGGG", "PBM E-score": -0.0576}
{"sequence": "ATAACGAA", "PBM E-score": -0.0562}
{"sequence": "CAAGGTTA", "PBM E-score": -0.22}
{"sequence": "CAGACCAA", "PBM E-score": -0.144}
{"sequence": "ACCTCCGC", "PBM E-score": 0.342}
{"sequence": "CAAGCACA", "PBM E-score": -0.276}
{"sequence": "AATAATTG", "PBM E-score": -0.164}
{"sequence": "ATTGGCTA", "PBM E-score": -0.0357}
{"sequence": "CTTTATCC", "PBM E-score": 0.169}
{"sequence": "GTAACGTA", "PBM E-score": -0.118}
{"sequence": "CTCGGCAA", "PBM E-score": 0.0719}
{"sequence": "ACCGAAGA", "PBM E-score": 0.162}
{"sequence": "CAAGCAAC", "PBM E-score": 0.0508}
{"sequence": "AATTCTAG", "PBM E-score": -0.145}
{"sequence": "AATCAATT", "PBM E-score": -0.151}
{"sequence": "AGGCACTA", "PBM E-score": 0.111}
{"sequence": "AGGATACC", "PBM E-score": -0.125}
{"sequence": "AGCTAGCG", "PBM E-score": 0.0888}
{"sequence": "ATACGTCC", "PBM E-score": 0.295}
{"sequence": "AGTTTAGA", "PBM E-score": 0.206}
{"sequence": "CCTATAAG", "PBM E-score": -0.0382}
{"sequence": "AGGTGGAA", "PBM E-score": -0.0858}
{"sequence": "ACAGATCC", "PBM E-score": 0.114}
{"sequence": "ACAAGTCG", "PBM E-score": -0.113}
{"sequence": "AAACACGT", "PBM E-score": -0.0873}
{"sequence": "GAAGTCCC", "PBM E-score": 0.0505}
{"sequence": "GACGGGAA", "PBM E-score": 0.158}
{"sequence": "AGATTTCG", "PBM E-score": -0.0523}
{"sequence": "CATTTCTA", "PBM E-score": 0.0892}
{"sequence": "AGAGTTGA", "PBM E-score": -0.138}
{"sequence": "GAACCCAC", "PBM E-score": -0.106}
{"sequence": "TGTACCAA", "PBM E-score": -0.128}
{"sequence": "ACCGGCCG", "PBM E-score": 0.297}
{"sequence": "CTCTGGCC", "PBM E-score": -0.208}
{"sequence": "ATGATACG", "PBM E-score": -0.143}
{"sequence": "GTGACCAA", "PBM E-score": -0.214}
{"sequence": "AGGGTGAG", "PBM E-score": -0.273}
{"sequence": "CAACTTGG", "PBM E-score": -0.0599}
{"sequence": "AGAGTACT", "PBM E-score": -0.216}
{"sequence": "CGACATTC", "PBM E-score": -0.0275}
{"sequence": "ATATCCTC", "PBM E-score": -0.156}
{"sequence": "AGGGTGAC", "PBM E-score": -0.0276}
{"sequence": "CTATATCC", "PBM E-score": 0.187}
{"sequence": "GACCTTAA", "PBM E-score": 0.0643}
{"sequence": "CGGCAAGC", "PBM E-score": -0.026}
{"sequence": "CCGCACAG", "PBM E-score": 0.182}
{"sequence": "ATTCATAA", "PBM E-score": 0.122}
{"sequence": "CTCGTGCC", "PBM E-score": -0.0401}
{"sequence": "AGGCAATG", "PBM E-score": -0.151}
{"sequence": "CCCTGGCG", "PBM E-score": 0.114}
{"sequence": "CTGCTGGA", "PBM E-score": -0.218}
{"sequence": "CCATGACA", "PBM E-score": -0.171}
{"sequence": "ACAAGCCA", "PBM E-score": -0.195}
{"sequence": "CAGTATCG", "PBM E-score": 0.0112}
{"sequence": "ATAAACTC", "PBM E-score": 0.156}
{"sequence": "ACCTATTA", "PBM E-score": -0.187}
{"sequence": "AGTCCTGC", "PBM E-score": "1e-05"}
{"sequence": "CTGAGCAC", "PBM E-score": -0.197}
{"sequence": "CCCCCTGC", "PBM E-score": 0.0142}
{"sequence": "AACTATCT", "PBM E-score": -0.185}
{"sequence": "GAGGTACA", "PBM E-score": -0.168}
{"sequence": "GCAGACGC", "PBM E-score": -0.0745}
{"sequence": "AAGGGGTC", "PBM E-score": -0.265}
{"sequence": "AACTGAAT", "PBM E-score": -0.169}
{"sequence": "GCCTCCCC", "PBM E-score": 0.0301}
{"sequence": "CTCGTCGA", "PBM E-score": -0.226}
{"sequence": "GTAATCAA", "PBM E-score": -0.0189}
{"sequence": "CTATTCGC", "PBM E-score": -0.184}
{"sequence": "AGCTATTC", "PBM E-score": -0.0735}
{"sequence": "ACTTGGCT", "PBM E-score": -0.313}
{"sequence": "CACCCGAG", "PBM E-score": -0.125}
{"sequence": "GGCGCTCA", "PBM E-score": 0.0939}
{"sequence": "CTAACAGA", "PBM E-score": -0.149}
{"sequence": "GATCTCCC", "PBM E-score": -0.119}
{"sequence": "ATGCAGTC", "PBM E-score": -0.248}
{"sequence": "ACAACAAT", "PBM E-score": -0.148}
{"sequence": "TGAGTTAA", "PBM E-score": -0.155}
{"sequence": "AATAAAGG", "PBM E-score": 0.0326}
{"sequence": "AGCTCCTG", "PBM E-score": -0.18}
{"sequence": "AGAAGCCG", "PBM E-score": 0.136}
{"sequence": "CCCAAGAG", "PBM E-score": -0.153}
{"sequence": "AGGGCACC", "PBM E-score": -0.0589}
{"sequence": "GCTAGTCA", "PBM E-score": -0.126}
{"sequence": "GTGGTGTA", "PBM E-score": -0.123}
